# According to the supplement of paper PMC8728848:
# The list shows a part of the results.
# B1: BC2L-D C-terminal domain (Burkholderia cenocepacia), Q39MQ9_BURS3 (protein)
# chain: LVIVDAVTLLSAYPEASRDPAAPTVIDGRHLYVVSPGDAAQLGHNDSRLFTGLSPGDQLHLRETALALRAEVSVLFIRFALKDAGIVAPIELEVRDAATAVPDADDLLHPSCRPLKDHYWRSDVLAAGATTCTADFAVCDRDGTVSGYFRWETSIEIAGSQPDTKQPGFKPSSDRNGNFSLPPNTAFKAIFYANAADRQDLKLFIDDAPEPAATFVGNSEDGVRLFTLNSKGGKIRIEASANGRQSATDARLAPLSAGDTVWLGWLGAEDGADADYNDGIVILQWPIT
# Key:
# Assay in all cases: glycan array binding signal (z-score within array); higher = stronger binding
# Details in all cases: glycan notation: IUPAC condensed, linker removed
# Fuc(a1-2)Gal = target: Fuc(a1-2)Gal
# Summary of the method: (§1)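 Negative Z-scores can be read as non-binding. The Z-score is calculated within each array and then averaged across arrays of one protein sequence at different concentrations or buffers and across linkers. Arrays, 3228 in all, were curated from the Consortium for Functional Glycomics database and kept only where the protein sequence was available.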
# Fuc(a1-2)Gal(b1-3)GalNAc = target: Fuc(a1-2)Gal(b1-3)GalNAc
# Summary of the method: as §1
# [1] = target: Fuc(a1-2)Gal(b1-3)GalNAc(a1-3)[Fuc(a1-2)]Gal(b1-4)Glc
# Summary of the method: as §1
# [2] = target: Fuc(a1-2)Gal(b1-3)GalNAc(a1-3)[Fuc(a1-2)]Gal(b1-4)GlcNAc
# Summary of the method: as §1
# [3] = target: Fuc(a1-2)Gal(b1-3)GalNAc(b1-3)Gal
# Summary of the method: as §1
# [4] = target: Fuc(a1-2)Gal(b1-3)GalNAc(b1-3)Gal(a1-4)Gal(b1-4)Glc
# Summary of the method: as §1
# [5] = target: Fuc(a1-2)Gal(b1-3)GalNAc(b1-4)[Neu5Ac(a2-3)]Gal(b1-4)Glc
# Summary of the method: as §1
# Fuc(a1-2)Gal(b1-3)GlcNAc = target: Fuc(a1-2)Gal(b1-3)GlcNAc
# Summary of the method: as §1
# [6] = target: Fuc(a1-2)Gal(b1-3)GlcNAc(b1-2)Man(a1-3)[Fuc(a1-2)Gal(b1-3)GlcNAc(b1-2)Man(a1-6)]Man(b1-4)GlcNAc(b1-4)GlcNAc
# Summary of the method: as §1
# [7] = target: Fuc(a1-2)Gal(b1-3)GlcNAc(b1-2)Man(a1-3)[Fuc(a1-2)Gal(b1-3)GlcNAc(b1-2)Man(a1-6)]Man(b1-4)GlcNAc(b1-4)[Fuc(a1-6)]GlcNAc
# Summary of the method: as §1
# [8] = target: Fuc(a1-2)Gal(b1-3)GlcNAc(b1-3)Gal(b1-4)Glc
# Summary of the method: as §1
# [9] = target: Fuc(a1-2)Gal(b1-3)GlcNAc(b1-3)GalNAc
# Summary of the method: as §1
# [10] = target: Fuc(a1-2)Gal(b1-3)GlcNAc(b1-3)[Fuc(a1-3)[Gal(b1-4)]GlcNAc(b1-6)]Gal(b1-4)Glc
# Summary of the method: as §1
# [11] = target: Fuc(a1-2)Gal(b1-3)GlcNAc(b1-3)[Gal(b1-4)GlcNAc(b1-6)]Gal(b1-4)Glc
# Summary of the method: as §1
# [12] = target: Fuc(a1-2)Gal(b1-3)GlcNAc(b1-3)[Gal(b1-4)[Fuc(a1-3)]GlcNAc(b1-6)]Gal(b1-4)Glc
# Summary of the method: as §1
# [13] = target: Fuc(a1-2)Gal(b1-3)GlcNAc(b1-3)[Neu5Ac(a2-6)Gal(b1-4)GlcNAc(b1-6)]Gal(b1-4)Glc
# Summary of the method: as §1
# [14] = target: Fuc(a1-2)Gal(b1-3)[Fuc(a1-4)]GlcNAc
# Summary of the method: as §1
# [15] = target: Fuc(a1-2)Gal(b1-3)[Fuc(a1-4)]GlcNAc(b1-2)Man(a1-3)[Fuc(a1-2)Gal(b1-3)[Fuc(a1-4)]GlcNAc(b1-2)Man(a1-6)]Man(b1-4)GlcNAc(b1-4)GlcNAc
# Summary of the method: as §1
# [16] = target: Fuc(a1-2)Gal(b1-3)[Fuc(a1-4)]GlcNAc(b1-3)[Fuc(a1-3)[Gal(b1-4)]GlcNAc(b1-6)]Gal(b1-4)Glc
# Summary of the method: as §1
# [17] = target: Fuc(a1-2)Gal(b1-3)[Fuc(a1-4)]GlcNAc(b1-3)[Gal(b1-4)GlcNAc(b1-6)]Gal(b1-4)Glc
# Summary of the method: as §1
# Fuc(a1-2)Gal(b1-4)Glc = target: Fuc(a1-2)Gal(b1-4)Glc
# Summary of the method: as §1
# Fuc(a1-2)Gal(b1-4)Glc6S = target: Fuc(a1-2)Gal(b1-4)Glc6S
# Summary of the method: as §1
# Fuc(a1-2)Gal(b1-4)GlcNAc = target: Fuc(a1-2)Gal(b1-4)GlcNAc
# Summary of the method: as §1
# [18] = target: Fuc(a1-2)Gal(b1-4)GlcNAc(b1-2)Man(a1-3)[Fuc(a1-2)Gal(b1-4)GlcNAc(b1-2)Man(a1-6)]Man(b1-4)GlcNAc(b1-4)GlcNAc
# Summary of the method: as §1
# [19] = target: Fuc(a1-2)Gal(b1-4)GlcNAc(b1-2)Man(a1-3)[Fuc(a1-2)Gal(b1-4)GlcNAc(b1-2)Man(a1-6)]Man(b1-4)GlcNAc(b1-4)[Fuc(a1-6)]GlcNAc
# Summary of the method: as §1
# [20] = target: Fuc(a1-2)Gal(b1-4)GlcNAc(b1-2)[Fuc(a1-2)Gal(b1-4)GlcNAc(b1-4)]Man(a1-3)[Fuc(a1-2)Gal(b1-4)GlcNAc(b1-2)Man(a1-6)]Man(b1-4)GlcNAc(b1-4)GlcNAc
# Summary of the method: as §1
# [21] = target: Fuc(a1-2)Gal(b1-4)GlcNAc(b1-3)Gal(b1-4)GlcNAc
# Summary of the method: as §1
# [22] = target: Fuc(a1-2)Gal(b1-4)GlcNAc(b1-3)Gal(b1-4)GlcNAc(b1-3)Gal(b1-4)GlcNAc
# Summary of the method: as §1
# [23] = target: Fuc(a1-2)Gal(b1-4)GlcNAc(b1-3)GalNAc
# Summary of the method: as §1
# [24] = target: Fuc(a1-2)Gal(b1-4)GlcNAc(b1-3)[Fuc(a1-2)Gal(b1-4)GlcNAc(b1-6)]GalNAc
# Summary of the method: as §1
# [25] = target: Fuc(a1-2)Gal(b1-4)GlcNAc6S
# Summary of the method: as §1
# [26] = target: Fuc(a1-2)Gal(b1-4)[Fuc(a1-3)]GlcNAc
# Summary of the method: as §1
# [27] = target: Fuc(a1-2)Gal(b1-4)[Fuc(a1-3)]GlcNAc(b1-2)Man(a1-3)[Fuc(a1-2)Gal(b1-4)[Fuc(a1-3)]GlcNAc(b1-2)Man(a1-6)]Man(b1-4)GlcNAc(b1-4)GlcNAc
# Summary of the method: as §1
# [28] = target: Fuc(a1-2)Gal(b1-4)[Fuc(a1-3)]GlcNAc(b1-2)[Fuc(a1-2)Gal(b1-4)[Fuc(a1-3)]GlcNAc(b1-4)]Man(a1-3)[Fuc(a1-2)Gal(b1-4)[Fuc(a1-3)]GlcNAc(b1-2)Man(a1-6)]Man(b1-4)GlcNAc(b1-4)GlcNAc
# Summary of the method: as §1
# [29] = target: Fuc(a1-2)Gal(b1-4)[Fuc(a1-3)]GlcNAc(b1-3)Gal(b1-4)[Fuc(a1-3)]GlcNAc
# Summary of the method: as §1
# [30] = target: Fuc(a1-2)Gal(b1-4)[Fuc(a1-3)]GlcNAc(b1-3)Gal(b1-4)[Fuc(a1-3)]GlcNAc(b1-3)Gal(b1-4)[Fuc(a1-3)]GlcNAc
# Summary of the method: as §1
# [31] = target: Fuc(a1-2)Gal(b1-4)[Fuc(a1-3)]GlcNAc(b1-3)GalNAc
# Summary of the method: as §1
binder,measurement,setting,value
B1,glycan array binding signal (z-score),Fuc(a1-2)Gal,-0.116
same,glycan array binding signal (z-score),Fuc(a1-2)Gal(b1-3)GalNAc,0.513
same,glycan array binding signal (z-score),[1],-0.158
same,glycan array binding signal (z-score),[2],-0.159
same,glycan array binding signal (z-score),[3],-0.226
same,glycan array binding signal (z-score),[4],1.08
same,glycan array binding signal (z-score),[5],0.376
same,glycan array binding signal (z-score),Fuc(a1-2)Gal(b1-3)GlcNAc,0.536
same,glycan array binding signal (z-score),[6],1.29
same,glycan array binding signal (z-score),[7],0.094
same,glycan array binding signal (z-score),[8],0.385
same,glycan array binding signal (z-score),[9],-0.16
same,glycan array binding signal (z-score),[10],-0.169
same,glycan array binding signal (z-score),[11],-0.162
same,glycan array binding signal (z-score),[12],0.863
same,glycan array binding signal (z-score),[13],-0.159
same,glycan array binding signal (z-score),[14],0.632
same,glycan array binding signal (z-score),[15],0.416
same,glycan array binding signal (z-score),[16],-0.154
same,glycan array binding signal (z-score),[17],-0.159
same,glycan array binding signal (z-score),Fuc(a1-2)Gal(b1-4)Glc,-0.042
same,glycan array binding signal (z-score),Fuc(a1-2)Gal(b1-4)Glc6S,-0.155
same,glycan array binding signal (z-score),Fuc(a1-2)Gal(b1-4)GlcNAc,0.317
same,glycan array binding signal (z-score),[18],0.369
same,glycan array binding signal (z-score),[19],-0.005
same,glycan array binding signal (z-score),[20],-0.137
same,glycan array binding signal (z-score),[21],0.174
same,glycan array binding signal (z-score),[22],0.093
same,glycan array binding signal (z-score),[23],-0.165
same,glycan array binding signal (z-score),[24],-0.165
same,glycan array binding signal (z-score),[25],0.114
same,glycan array binding signal (z-score),[26],0.336
same,glycan array binding signal (z-score),[27],-0.057
same,glycan array binding signal (z-score),[28],-0.147
same,glycan array binding signal (z-score),[29],0.473
same,glycan array binding signal (z-score),[30],0.543
same,glycan array binding signal (z-score),[31],-0.155
